Many values rest on one well or one pass, so single values are uncertain.
Assays:
CHO-K1 [1] = test: hypodiploid nuclei frequency (% of nucleated events); higher = more hypodiploid events (aneugenic)
Procedure: (§1)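 Flow-cytometric in vitro micronucleus assay (Litron MicroFlow) in CHO-K1 cells in 96-well plates, 19 concentrations (4.5-200 µM, n=1 per concentration). Without S9, cells were exposed for 24 h and sampled at 48 h. With Aroclor 1254-induced rat liver S9, cells were exposed for 3-4 h and sampled at 27-28 h. Read-outs are %MN and %hypodiploid nuclei relative to nucleated events, and relative survival as the nuclei-to-bead ratio versus the 1% DMSO vehicle control (x100).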

CHO-K1 [2] = test: relative survival (nuclei to bead ratio vs DMSO control) (% of vehicle control); higher = more surviving cells
Procedure: as §1

CHO-K1 [3] = test: micronucleus frequency (% of nucleated events); higher = more micronuclei (genotoxic)
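Wherever hypodiploid nuclei frequency (% of nucleated events) is given: hypodiploid nuclei gated on a flow cytometer with 488 nm excitation after SYTOX Green staining, cultures at 37 °C, positive controls vinblastine without S9 and cyclophosphamide with S9.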
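Wherever micronucleus frequency (% of nucleated events) is given: cells lysed with nuclei stained by SYTOX Green, then micronucleus-gated events counted against nucleated events by flow cytometry with 488 nm excitation.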
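Wherever relative survival (nuclei to bead ratio vs DMSO control) is given: Lysed-cell nuclei stained with SYTOX Green and counted against counting beads by flow cytometry at 488 nm excitation, with vinblastine (no S9) and cyclophosphamide (plus S9) as positive controls.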

CCCCCCCCCC(=O)O [Decanoic acid]
Details	hypodiploid nuclei frequency, CHO-K1 [1] [%]	micronucleus frequency, CHO-K1 [3] [%]	relative survival, CHO-K1 [2]
concentration: 4.5 (µM), S9 metabolic activation: with S9, exposure time: 3-4 hours	0.2	1.16	106
concentration: 4.5 (µM), S9 metabolic activation: without S9, exposure time: 24 hours	0.56	1.18	83.3
concentration: 5.63 (µM), S9 metabolic activation: with S9, exposure time: 3-4 hours	0.3	1.24	118
concentration: 5.63 (µM), S9 metabolic activation: without S9, exposure time: 24 hours	0.78	1.22	96
concentration: 7.04 (µM), S9 metabolic activation: with S9, exposure time: 3-4 hours	0.22	1.3	105
concentration: 7.04 (µM), S9 metabolic activation: without S9, exposure time: 24 hours	0.68	1.34	104
concentration: 8.8 (µM), S9 metabolic activation: with S9, exposure time: 3-4 hours	0.18	1.1	111
concentration: 8.8 (µM), S9 metabolic activation: without S9, exposure time: 24 hours	0.48	1.28	123
concentration: 11 (µM), S9 metabolic activation: with S9, exposure time: 3-4 hours	0.1	1.14	113
concentration: 11 (µM), S9 metabolic activation: without S9, exposure time: 24 hours	0.54	1.7	120
concentration: 13.7 (µM), S9 metabolic activation: with S9, exposure time: 3-4 hours	0.28	1.5	96.5
concentration: 13.7 (µM), S9 metabolic activation: without S9, exposure time: 24 hours	0.58	1.4	108
concentration: 17.2 (µM), S9 metabolic activation: with S9, exposure time: 3-4 hours	0.16	1.58	91.5
concentration: 17.2 (µM), S9 metabolic activation: without S9, exposure time: 24 hours	0.54	1.66	104
concentration: 21.5 (µM), S9 metabolic activation: with S9, exposure time: 3-4 hours	0.18	1.3	91.7
concentration: 21.5 (µM), S9 metabolic activation: without S9, exposure time: 24 hours	0.48	1.56	114
concentration: 26.8 (µM), S9 metabolic activation: with S9, exposure time: 3-4 hours	0.18	1.1	136
concentration: 26.8 (µM), S9 metabolic activation: without S9, exposure time: 24 hours	0.8	1.66	123
concentration: 33.6 (µM), S9 metabolic activation: with S9, exposure time: 3-4 hours	0.34	1.36	127
concentration: 33.6 (µM), S9 metabolic activation: without S9, exposure time: 24 hours	0.68	1.5	113
concentration: 41.9 (µM), S9 metabolic activation: with S9, exposure time: 3-4 hours	0.24	1.1	122
concentration: 41.9 (µM), S9 metabolic activation: without S9, exposure time: 24 hours	0.5	1.74	109
concentration: 52.4 (µM), S9 metabolic activation: with S9, exposure time: 3-4 hours	0.1	1.48	117
concentration: 52.4 (µM), S9 metabolic activation: without S9, exposure time: 24 hours	0.66	1.3	129
concentration: 65.5 (µM), S9 metabolic activation: with S9, exposure time: 3-4 hours	0.08	1.2	107
concentration: 65.5 (µM), S9 metabolic activation: without S9, exposure time: 24 hours	0.72	1.38	131
concentration: 81.9 (µM), S9 metabolic activation: with S9, exposure time: 3-4 hours	0.08	1.18	124
concentration: 81.9 (µM), S9 metabolic activation: without S9, exposure time: 24 hours	0.74	1.7	127
concentration: 102 (µM), S9 metabolic activation: with S9, exposure time: 3-4 hours	0.14	1.18	104
concentration: 102 (µM), S9 metabolic activation: without S9, exposure time: 24 hours	0.84	1.42	106
concentration: 128 (µM), S9 metabolic activation: with S9, exposure time: 3-4 hours	0.28	1.2	123
concentration: 128 (µM), S9 metabolic activation: without S9, exposure time: 24 hours	0.74	1.44	110
concentration: 160 (µM), S9 metabolic activation: with S9, exposure time: 3-4 hours	0.16	1.82	92.8
concentration: 160 (µM), S9 metabolic activation: without S9, exposure time: 24 hours	1.08	1.48	95
concentration: 200 (µM), S9 metabolic activation: with S9, exposure time: 3-4 hours	0.06	1.52	96.9
concentration: 200 (µM), S9 metabolic activation: without S9, exposure time: 24 hours	1.24	1.6	100

From the supplement of paper PMC9151546
